In publication PMC4336329 (PLoS ONE, 2015):
Among all 310,000 compounds or so, about 14,000 (4.5%) showed an effect of 50% or more. Effects have a minus sign here. This is one part of the list.

molecular target: human ether-à-go-go-related gene (hERG) potassium channel (human, UniProt Q12809); experiment: primary screen, population patch clamp on CHO cells stably expressing hERG
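Further: peak tail current of the secondary pulse compared with the same well before compound.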

Chain of human ether-à-go-go-related gene (hERG) potassium channel (Q12809 whole entry, looked up): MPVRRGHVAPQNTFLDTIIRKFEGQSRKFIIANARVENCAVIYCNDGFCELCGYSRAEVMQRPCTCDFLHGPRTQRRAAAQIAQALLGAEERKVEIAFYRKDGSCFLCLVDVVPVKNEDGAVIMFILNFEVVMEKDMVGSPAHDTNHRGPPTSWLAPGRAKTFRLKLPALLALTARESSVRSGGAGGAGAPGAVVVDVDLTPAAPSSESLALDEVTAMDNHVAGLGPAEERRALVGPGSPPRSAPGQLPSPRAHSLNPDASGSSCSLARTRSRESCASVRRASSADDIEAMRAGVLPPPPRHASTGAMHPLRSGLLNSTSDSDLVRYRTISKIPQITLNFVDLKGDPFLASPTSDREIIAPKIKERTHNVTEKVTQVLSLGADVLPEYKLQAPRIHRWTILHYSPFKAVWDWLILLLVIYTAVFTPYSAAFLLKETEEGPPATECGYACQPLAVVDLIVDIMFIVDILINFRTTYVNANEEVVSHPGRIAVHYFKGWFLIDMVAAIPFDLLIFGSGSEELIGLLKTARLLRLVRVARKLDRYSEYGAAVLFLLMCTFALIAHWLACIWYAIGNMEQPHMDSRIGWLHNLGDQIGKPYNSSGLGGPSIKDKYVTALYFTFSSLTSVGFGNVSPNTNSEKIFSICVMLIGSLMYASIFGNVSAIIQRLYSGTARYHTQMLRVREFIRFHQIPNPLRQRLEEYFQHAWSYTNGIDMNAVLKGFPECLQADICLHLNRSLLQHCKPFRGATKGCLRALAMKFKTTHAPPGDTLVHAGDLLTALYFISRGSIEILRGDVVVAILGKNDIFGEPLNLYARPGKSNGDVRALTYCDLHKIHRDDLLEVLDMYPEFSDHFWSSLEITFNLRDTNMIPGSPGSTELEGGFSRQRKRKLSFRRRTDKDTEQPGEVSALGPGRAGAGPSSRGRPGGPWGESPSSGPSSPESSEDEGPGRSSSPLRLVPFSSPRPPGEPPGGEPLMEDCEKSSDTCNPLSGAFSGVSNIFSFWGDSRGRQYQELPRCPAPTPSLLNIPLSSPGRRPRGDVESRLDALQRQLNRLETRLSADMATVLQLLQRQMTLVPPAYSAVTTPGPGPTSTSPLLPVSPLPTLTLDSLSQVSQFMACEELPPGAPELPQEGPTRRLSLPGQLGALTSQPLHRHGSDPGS

| Compound | hERG current change (%, negative = inhibition) at 10uM [%] |
| --- | --- |
| COC(=O)c1sccc1-n1cccc1C(=O)C(=O)N1CCCCC1 | 7.22 |
| O=C(c1cc2c(s1)CCCC2)N1CCC2(CC1)OCCO2 | -7.75 |
| CCCCOc1ccc(Nc2cc(Cl)ccc2C(=O)O)cn1 | 23.5 |
| C=CCn1c(CNC(=O)c2cccs2)n[nH]c1=S | 15.5 |
| CC(Sc1nc(N2CCOCC2)c2c(c1C#N)CC(C)(C)OC2)C(=O)O (stereo not drawn) | 25.8 |
| Cc1cc(C)cc(C(=O)Oc2cc(C)[nH]c(=O)c2[N+](=O)[O-])c1 | 24.6 |
| COc1cccc(-n2c(N)c(-c3nc4ccccc4[nH]3)sc2=S)c1 | 1.42 |
| Cc1cccc(N2CCN(C(=O)c3nn(C)c4c3CS(=O)(=O)c3ccccc3-4)CC2C)c1 (stereo not drawn) | -46.2 |
| COc1ccc(N2C(=O)c3cc4ccccc4cc3C2=O)cc1 | 2.74 |
| Cc1ccc(S(=O)(=O)c2nc(NCc3ccc4c(c3)OCO4)sc2Cl)cc1 | -1.71 |
| COc1c(O)ccc2c1CN1CCc3cc4c(cc3C1C2)OCO4 (stereo not drawn) | -22 |
| COc1ccc(OC)c(N(CC(=O)Nc2cccc(C(F)(F)F)c2)S(C)(=O)=O)c1 | 3.55 |
| O=C(Cc1ccc(-n2c(=S)[nH]c3ccccc3c2=O)cc1)N1CCN(c2ccccc2)CC1 | 8.11 |
| Cc1cc(Br)ccc1NC(=O)CN(C)C(=O)C1CCN(C(=O)c2ccc(F)cc2)CC1 | -65.1 |
| COc1ccc(Nc2nc(NCc3ccco3)nc(N)c2[N+](=O)[O-])cc1 | 20.3 |
| CC1(C)CC(=O)C=C(C(=O)N2CCCC(CCC(=O)NCc3ccccc3F)C2)O1 (stereo not drawn) | 14.5 |
| CCc1noc(C)c1C(=O)Nc1cc(S(=O)(=O)N2CCOCC2)ccc1N1CCN(CC)CC1 | -19.5 |
| O=C(O)CCCNS(=O)(=O)c1ccc2ccccc2c1 | 20.2 |
| CCN(C(=O)c1cccc(S(=O)(=O)N2CCc3ccccc32)c1)C1CCS(=O)(=O)C1 (stereo not drawn) | -18.2 |
| O=C(COC(=O)c1ccc(OC(F)(F)F)cc1)NCCN1C(=O)CSC1=O | -36.7 |
| COc1ccc(S(=O)(=O)NC(C)C(=O)N2CCCC2)cc1C (stereo not drawn) | 16.8 |

| Compound | hERG current change (%, negative = inhibition) at 10uM [%] |
| --- | --- |
| O=C(NCc1n[nH]c(=S)n1-c1cccc(C(F)(F)F)c1)c1ccc(S(=O)(=O)N2CCCCC2)cc1 | 16.5 |
| Cc1ccc(NC(=O)c2ccccc2NC(=O)c2cccs2)cc1 | 20.1 |
| Cn1nc(C(F)(F)F)c(-c2ccc(F)cc2)c1NC(=O)CSCC(=O)O | 4.94 |
| C=CCN(CC=C)CCCOc1ccc(Br)cc1Cl | -30.2 |
| CNC(=O)COC(=O)c1ccc(-c2nc3ccccc3s2)s1 | 4.63 |
| Cc1cc(C)nc(SCc2ccc(C(=O)N/N=C/c3ccccc3C(=O)O)cc2)n1 | 6.57 |
| C/C(=N\NC(=S)NC(C)C)c1ccccc1OC(F)F | 9.19 |
| Cc1ccc2c(c1)N(CC(=O)NCC(C)c1ccccc1)C(=O)c1cccnc1O2 (stereo not drawn) | -1.79 |
| CCCCn1c(N)c(N(CC(C)C)C(=O)CSCC(=O)Nc2ccc(OC)cc2)c(=O)[nH]c1=O | -7.53 |
| CC(OC(=O)c1cc(-c2cccnc2)nc2ccccc12)C(=O)Nc1ccc2ccccc2c1 (stereo not drawn) | -2.38 |
| CCN(CC)c1ccc(C(=O)OCC(=O)Nc2cccc(S(=O)(=O)NC3=NCCCCC3)c2)cc1 | 7.02 |
| Cc1nn(-c2ccccc2)c(Cl)c1C(=O)Nc1ccc(N2CCOCC2)cc1 | -9.1 |
| Cc1ccc(S(=O)(=O)N2CCN(C(=O)CSc3ccccn3)CC2)c(C)c1 | -26.5 |
| CC(C)(C)n1nc2c(c1NC(=O)COc1ccc(Cl)cc1)CSC2 | -35.3 |
| COC(=O)C1=C(c2ccc(OCc3ccccc3)cc2)C[C@@H]2CC[C@H]1N2C(=O)NCc1cccc(C(F)(F)F)c1 | 8.1 |
| CCc1ccc(C(=O)Nc2ccc(C)c(NS(C)(=O)=O)c2)cc1 | 5.88 |
| COC(=O)c1c(NC(=O)C(C)C)sc(C(=O)N2CCOCC2)c1C | 8.69 |
| FC(F)(F)c1cccc(OCc2nnc3n2CCC3)c1 | 20.1 |
| COc1cc(C(=O)Nc2nncs2)cc(OC)c1OC | 6.03 |
| O=C(Nc1ccc(S(=O)(=O)Nc2ncccn2)cc1)c1cccc(S(=O)(=O)N2CCCC2)c1 | -4.1 |
| CC12CC(NC(=O)N1c1cccc(C(=O)N3CCN(c4ccccc4)CC3)c1)c1ccccc1O2 (stereo not drawn) | -11.7 |
